Results reported in PubChem BioAssay AID624173 (National Center for Advancing Translational Sciences (NCATS), 2012).
The campaign covered roughly 410,000 compounds. About 490 (0.12%) were called active. The shares of active, inactive and inconclusive entries below differ from those in the screen. Calls follow the shape of the dose curve; as a rule, active = well fitted inhibition curve with a large enough effect; inconclusive = small, poorly fitted or top-dose-only effect; inactive = flat fitted curve, though single readings scatter. Potencies of inconclusive entries are doubtful fits and often do not repeat.
% is scaled to controls: 0 for no effect and ±100 for the full control effect; potency is read from the fitted curve at half-maximal effect; tags tell the direction and shape of the fitted curve.
Also: nearly all actives have a fitted effect of over 50% in size.

What follows are molecules tested against pyruvate kinase (Trypanosoma brucei) (UniProt Q57TT1) (assay: qHTS of Trypanosoma Brucei Inhibitors). Conditions: TbPYK enzyme, Kinase-Glo Plus ATP luminescence, 45 min; series mostly up to 76.8 µM.
Outline: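 Activity of T. brucei pyruvate kinase was followed by Kinase-Glo Plus luminescence after the enzyme reacted 45 min at room temperature with 130 uM ADP (final) and substrate. Test compounds were added before ADP at multiple concentrations.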
For `COc1ccc(Cl)cc1-c1n[nH]c(=S)o1`, the Potency was inconclusive: 28.2 µM [inhibitor, partial curve, poor fit]. With `Cc1cccc(OCc2n[nH]c(=S)o2)c1C` the Potency was inconclusive: 11.2 µM [inhibitor, partial curve, poor fit]. In the case of `O=c1c2cn[nH]c2[nH]c(=S)n1-c1cccc(Cl)c1`, the Potency is reported as inconclusive: 50.1 µM [inhibitor, single point]. `Cc1cccc(NC(=O)c2ccc(F)c(S(=O)(=O)N3CCC4(CC3)OCCO4)c2)c1` was tested, and the Potency was “inactive”. `O=C(NC(=S)Nc1ccc(N2CCCCC2)cc1)c1ccco1` was tested, and the Potency was “inactive”. With `Cc1cc(C)c(S(=O)(=O)/N=C2/C=C(SCC(=O)O)C(=O)c3ccccc32)cc1C` the Potency was inconclusive: 20 µM [inhibitor, partial curve, poor fit]. In the case of `O=C(Nc1ccc(-c2n[nH]c(=S)o2)cc1)c1ccccc1Cl`, the Potency is reported as inconclusive: 28.2 µM [inhibitor, partial curve, poor fit]. In the case of `CCN(c1ccc2c(c1)OCO2)S(=O)(=O)c1cc(Br)cc2c1N(C(=O)C1CC1)CC2`, the Potency is reported as inconclusive: 31.6 µM [inhibitor, single point]. In the case of `CCCCCCC(=O)N(O)C1CC(=O)N(c2ccc(F)cc2)C1=O` (stereo unspecified), the Potency is reported as inconclusive: 35.5 µM [inhibitor, partial curve]. `CCOc1cc(/C=C\[N+](=O)[O-])ccc1OCC(=O)N1CCOCC1` was tested, and the Potency was inconclusive: 35.5 µM [inhibitor, single point]. For `CC(=O)Oc1ccc2cc(-c3ccccc3)c(=O)oc2c1`, the Potency was “inactive”. In the case of `Cc1ccc(N2CCN(CC3CC=CCC3)CC2)cc1` (stereo unspecified), the Potency is reported as “inactive”. `Clc1cccc(Cc2c(-c3ccco3)nc3ccc(Cl)cn23)c1` was tested, and the Potency was active: 20 µM. In the case of `CC1(CC(=O)N/N=C/c2cc([N+](=O)[O-])c(O)cc2O)OCCO1`, the Potency is reported as inconclusive: 50.1 µM [inhibitor, partial curve, poor fit]. With `Cc1ccc(Sc2ncccc2C(=O)O)c(C)c1` the Potency was “inactive”. With `Cc1ccc2ncnc(Nc3ccccc3)c2c1` the Potency was inconclusive: 44.7 µM [inhibitor, single point]. With `COc1ccc2nc(-c3cccc(N)c3)[nH]c2c1` the Potency was “inactive”. With `CNC(=O)C1C(=S)NC(N)=C(C#N)C1c1ccccc1` (stereo unspecified) the Potency was inconclusive: 39.8 µM [inhibitor, single point]. With `COc1ccc(CN2C(=O)NC(=O)/C(=C/c3ccc(OC)c(OC)c3OC)C2=O)cc1` the Potency was inconclusive: 35.5 µM [inhibitor, partial curve]. For `Cc1cc(C)cc(C(=O)NCC(=O)NCCc2c[nH]c3ccccc23)c1`, the Potency was “inactive”. In the case of `CC(C)Oc1ccc(CCc2n[nH]c(=S)n2-c2ccccc2)cc1`, the Potency is reported as inconclusive: 6.31 µM [inhibitor, partial curve, poor fit]. `NC(N)=Nc1nc2cc([N+](=O)[O-])ccc2o1` was tested, and the Potency was “inactive”. `O=C(O)c1ccccc1-c1c2cc(Br)c(=O)cc-2oc2[c]([Hg])c(O)c(Br)cc12` was tested, and the Potency was inconclusive: 5.01 µM [inhibitor, full curve, poor fit]. `O=C(O)Cc1ccc(N=Nc2c(O)c(C(=O)O)cc3ccccc23)cc1` was tested, and the Potency was “inactive”. With `COc1ccc(CN=C2NC(=O)CC(C(=O)Nc3ccccc3C)S2)cc1` (stereo unspecified) the Potency was inconclusive: 0.794 µM [inhibitor, full curve, poor fit]. With `COc1cc(/C=N/n2c(C3CCCCC3)n[nH]c2=S)cc(Br)c1O` the Potency was active: 7.94 µM. `Cc1nn(-c2ccccc2)c(OC(=O)C(C)C)c1Sc1ccc(Cl)cc1` was tested, and the Potency was inconclusive: 50.1 µM [inhibitor, single point]. `N/C(Cc1ccc(Cl)cc1)=N\OC(=O)CCc1ccccc1` was tested, and the Potency was “inactive”. `COC(=O)CSc1nnc(-c2ccc(S(=O)(=O)N3CCCC3)cc2)o1` was tested, and the Potency was “inactive”. With `CN1C(=O)C(=Cc2ccccc2OCc2ccccc2Cl)C(=O)N(C)C1=O` the Potency was inconclusive: 39.8 µM [inhibitor, partial curve, poor fit]. `COc1ccc(C)cc1NC(=O)CSc1ccc(-c2ccco2)nn1` was tested, and the Potency was inconclusive: 28.2 µM [inhibitor, partial curve, poor fit]. For `NP(=O)(OCCCCc1ccccc1)Oc1ccccc1Cl` (stereo unspecified), the Potency was inconclusive: 31.6 µM [inhibitor, partial curve, poor fit]. With `COc1ccc(C(=O)Nc2ccc(-c3n[nH]c(=S)o3)cc2)cc1` the Potency was inconclusive: 6.31 µM [inhibitor, partial curve, poor fit]. With `CCCc1cc(-c2n[nH]c(=S)n2-c2cccc(C)c2)cs1` the Potency was inconclusive: 11.2 µM [inhibitor, partial curve, poor fit]. `Cc1nn(CCC#N)c2c1P(=S)(N1CCCC1)OC(c1ccc(F)cc1)=N2` (stereo unspecified) was tested, and the Potency was inconclusive: 35.5 µM [inhibitor, partial curve, poor fit]. With `O=[N+]([O-])c1ccc(Cl)c2c1C1C=CCC1C(c1ccccn1)N2` (stereo unspecified) the Potency was “inactive”. With `CCN1CCN(C(=S)c2ccc(Cl)c(Cl)c2)CC1` the Potency was inconclusive: 22.4 µM [inhibitor, partial curve, poor fit]. In the case of `CC(=O)Nc1ccc(S(=O)(=O)N2CCC(n3c(C(F)(F)F)nc4cccnc43)CC2)cc1`, the Potency is reported as “inactive”. `O=C1NC(=O)N(c2ccc(F)cc2)C(=O)/C1=C/c1ccsc1` was tested, and the Potency was inconclusive: 31.6 µM [inhibitor, partial curve]. With `CCOc1ccc(CCNC(=O)Cn2nc(C)n3c(cc4occc43)c2=O)cc1OCC` the Potency was “inactive”. In the case of `O=[N+]([O-])c1cc(/C=N/n2c(-c3cccnc3)n[nH]c2=S)ccc1Cl`, the Potency is reported as inconclusive: 2.51 µM [inhibitor, full curve, poor fit]. With `Cc1ccc(/C=N/n2c(-c3cccnc3)n[nH]c2=S)o1` the Potency was inconclusive: 17.8 µM [inhibitor, partial curve]. `CCSc1ccc2nnc(-c3cccc(F)c3)n2n1` was tested, and the Potency was inconclusive: 28.2 µM [inhibitor, partial curve, poor fit]. For `Cc1ccc(NC(=O)CSc2nnc(-c3ccco3)c(-c3ccco3)n2)cc1`, the Potency was inconclusive: 25.1 µM [inhibitor, partial curve]. For `CCn1c(SCC(=O)NNC(=S)Nc2ccccc2)nnc1-c1ccc(Cl)cc1`, the Potency was inconclusive: 12.6 µM [inhibitor, partial curve, poor fit]. With `S=c1[nH]nc(C2CCCCC2)n1/N=C/c1c(Cl)cccc1Cl` the Potency was inconclusive: 25.1 µM [inhibitor, partial curve]. `NC(=O)CCn1c(C(=O)c2ccc(Cl)cc2)c2ccccc2[n+]1[O-]` was tested, and the Potency was “inactive”. `O=C(O)CSc1ccc(NC(=O)Nc2ccccc2F)cc1` was tested, and the Potency was inconclusive: 28.2 µM [inhibitor, partial curve, poor fit]. For `COc1cccc(/C=N\NC(=O)c2ccc(C)nc2)c1`, the Potency was “inactive”. For `COc1ccc(S(=O)(=O)N2CCC(C(=O)Oc3ccc(C)cc3)CC2)cc1OC`, the Potency was inconclusive: 35.5 µM [inhibitor, single point]. In the case of `O=[N+]([O-])c1ccccc1/C=N/n1c(C(F)(F)F)n[nH]c1=S`, the Potency is reported as inconclusive: 31.6 µM [inhibitor, partial curve, poor fit]. With `CCc1ccc(NC(=O)c2ccc3[nH]c(C)c(C)c3c2)cc1` the activity, negative = inhibition was inactive: 4.69% [at 15.4 µM]. With `C[C@@H](NC(=O)[C@@H]1Cc2ccccc2CN1)C(=O)Nc1ccc2c(c1)OCCO2` the Potency was inconclusive: 35.5 µM [inhibitor, single point]. For `Cc1cccc(NC(=O)CCCCCn2c(=O)[nH]c3ccsc3c2=O)c1`, the Potency was “inactive”. `Cc1ccc(C)c(CN2C(=O)N(c3cc(Cl)ccc3C)S(=O)(=O)c3ccccc32)c1` was tested, and the Potency was “inactive”. In the case of `COC(=O)c1sc(=S)n(-c2cc(F)ccc2F)c1N`, the Potency is reported as inconclusive: 25.1 µM [inhibitor, single point]. In the case of `COc1ccccc1N1CCN(C(=O)Cn2cnc3onc(-c4ccc(F)cc4)c3c2=O)CC1`, the Potency is reported as “inactive”. For `CCOC(=O)C1(Cc2ccccc2C)CCCN(C(=O)COC)C1` (stereo unspecified), the Potency was “inactive”. With `CC(C)CC1NC(=O)N(CC(=O)Nc2ccc3c(c2)OCCO3)C1=O` (stereo unspecified) the Potency was “inactive”. In the case of `COc1ccc(N=CC2=C(O)c3ccccc3C2=O)c(OC)c1`, the Potency is reported as inconclusive: 31.6 µM [inhibitor, single point]. In the case of `CCOC(=O)CSc1nc2sc3c(c2c(=O)[nH]1)CCCC3`, the Potency is reported as “inactive”. For `Cc1ccc(S(=O)(=O)Nc2ccc3c4c(cccc24)CC3)c(C)c1`, the Potency was “inactive”. In the case of `C=CCc1cc(C=C2C(=O)N(C)C(=O)N(C)C2=O)cc(OCC)c1OCc1ccccc1`, the Potency is reported as inconclusive: 44.7 µM [inhibitor, single point]. In the case of `O=C1C=CC(c2c[nH]c3ccccc23)CC1` (stereo unspecified), the Potency is reported as inconclusive: 20 µM [inhibitor, partial curve]. With `N#CC1=C(N)Oc2[nH]c(=S)[nH]c(=O)c2C12C(=O)Nc1ccccc12` (stereo unspecified) the Potency was inconclusive: 12.6 µM [inhibitor, partial curve]. With `Cc1ccc(S(=O)(=O)N2CCCSCC2)cc1` the Potency was inconclusive: 50.1 µM [inhibitor, single point]. In the case of `CC(=O)Oc1ccc(/C=C2/CCc3ccccc3C2=O)cc1`, the Potency is reported as inconclusive: 50.1 µM [inhibitor, single point]. For `C=CCn1cccc(C(=O)Nc2ccc(OCC)cc2)c1=O`, the Potency was “inactive”. For `COC(=O)c1ccc(CSc2nnc(C)s2)cc1`, the Potency was inconclusive: 44.7 µM [inhibitor, single point]. In the case of `CC12CCC(c3n[nH]c(=S)nc31)C2(C)C` (stereo unspecified), the Potency is reported as inconclusive: 35.5 µM [inhibitor, partial curve, poor fit]. With `CN(c1ccc(C(=O)N2CCN(c3ccccc3F)CC2)cc1)S(=O)(=O)c1ccccc1` the Potency was “inactive”.
